Results on 18 compounds are retold here after PubChem BioAssay AID1745853 (National Center for Advancing Translational Sciences (NCATS), 2022).

This is one part of the list. These are further read-outs of the screen, such as a control signal, another cell line or another target. No call is given for them.

What all share (test): Primary Screen for Target Class Profiling of Small Molecule Inhibitors of Methyltransferases
The target of experiment [1] is Glycine N-methyltransferase (Homo sapiens) (UniProt Q14749). The note with it: purified enzyme, MTase-Glo SAH luminescence; measured here: GNMT inhibition; at 40 µM; stronger effect = lower value. From the text:
(§1) PI: Matthew D. Hall Ph.D. and Quinlin M. Hanson Ph.D.
(§2) National Center for Advancing Translational Sciences (NCATS)
(§3) National Institute of Health (NIH), Rockville, MD
(§4) Target class profiling (TCP) is a chemical biology approach amenable to investigating understudied biological targets. TCP is achieved by developing a generalizable assay platform and applying it to screen a curated set of compound libraries against representative members of a target class. Small molecule methyltransferases (SMMTase) are a subclass of methyltransferase that act on metabolites to modulate signaling pathways, metabolize xenobiotics, or balance the available methyl pool. We screened four curated libraries totaling 27,574 unique compounds against the SMMTases nicotinamide N-methyltransferase (NNMT), phenylethanolamine N-methyltransferase (PNMT), histamine N-methyltransferase (HNMT), glycine N-methyltransferase (GNMT), catechol O-methyltransferase (COMT), and guanidinoacetate N-methyltransferase (GAMT). The data generated by this TCP can be leveraged for informed tool molecule development. For example, in the associated publication we identified a chemotype of HNMT-selective inhibitors. Additionally, we identified a putative SMMTase-selective inhibitor with potential as a tool molecule for studying broader methyltransferase biology.
(§5) High-through put screening assays were developed at the National Center for Advancing Translational Science (NCATS) for the enzymes NNMT, PNMT, HNMT, GNMT, COMT, and GAMT. Enzymatic activity was measured as a function of SAM cofactor conversion using the MTase Glo kit (Promega) for all enzymes. All assays were performed in 1536-well format with substrates and SAM concentrations at KM values. Enzyme concentration and assay timing were optimized for 10-20% SAM conversion. Initial screening of 27,574 compounds was done as single-point assays using the highest compound concentration (40 uM). […] These compounds were replated in 11-point dose response and assayed against NNMT, PNMT, HNMT, GNMT, COMT, GAMT, and a counter-assay. The IC50 and efficacy (maximal response) values were determined for each dose-response curve. These values are also accounted for in the area under the curve (AUC) values.
(§6) PROTOCOL TABLE (as described by Inglese J, Shamu CE and Guy RK. 2007)
(§7) SEQUENCE No. (e.g., 1, 2, 3, etc.); […] (e.g., Cells, Incubation, Reagent, etc.); VALUE; DESCRIPTION.
(§8) 1; Reagent; 2 uL; SMMTase Enzyme (2x) in reaction buffer, columns 1- 48.
(§9) 2; Reagent; 1 uL; SAM (4x) in reaction buffer, columns 1-48.
(§10) 3; Controls; 23 nL; DMSO in column 4; sinefungin in DMSO (0 uM - 40 uM) in 7-point 1:2 dilution series (n = 2) in column 2.
(§11) 4; Compounds; 23 nL; Columns 5-48.
(§12) 5; Reagent; 1 uL; Substrate (4x) in reaction buffer, columns 2-48.
(§13) 6; Time; 20-30 min; Incubation.
(§14) 7; Reagent; 1 uL; MTase-Glo reagent (5X), columns 1-48.
(§15) 8; Time; 30 min; Incubation.
(§16) 9; Reagent; 5 uL; MTase-Glo Detection reagent, columns 1-48.
(§17) 10; Time; 30 min; Incubation, luminescence evolution.
(§18) 11; Detection; Luminescence; ViewLux uHTS Microplate Imager (PerkinElmer).
(§19) NOTES (numbers refer to Sequence numbers above)
(§20) 1, 2, 5. White Medium Binding Greiner 1536-well plates (Cat #789175-F, Greiner Bio-One, Monroe, NC); Reaction buffer: 50 mM Tris, pH 8.0, 3 mM MgCl2, 1 mM EDTA, 50 mM NaCl, 1 mM DTT, and 0.1 mg/mL BSA. Evaporation was prevented by covering assay plates with metal lids containing holes to allow gas diffusion.
(§21) 1. Six SMMTase were profiled: HNMT, GNMT, PNMT, COMT, NNMT, GAMT
(§22) 5. The corresponding substrate was used for each enzyme: HNMT - 5.3 uM Histamine; GNMT - >500 uM Glycine; PNMT - 16.2 uM Norephinephrine; COMT - 13.7 uM Norephinephrine; NNMT - 3.8 uM Nicotinamide; GAMT - 2.5 uM Guanidinoacetate.6, 8, 10. Room temperature
(§23) 6. Final reaction conditions: 10 nM COMT, 5 uM SAM, 15 uM norepinephrine, 50 mM Tris, pH 8.0, 3 mM MgCl2, 1 mM EDTA, 50 mM NaCl, 1 mM DTT, and 0.1 mg/mL BSA; refer to tables 2 and S1 for specific timing.
8. […]

In experiment [2] the target is Guanidinoacetate N-methyltransferase (Homo sapiens) (UniProt Q14353). The note with it: purified enzyme, MTase-Glo SAH luminescence; measured here: GAMT inhibition; at 40 µM; stronger effect = lower value.
Source text: as §1, §2, §3, §4, §5, §6, §7, §8, §9, §10, §11, §12, §13, §14, §15, §16, §17, §18, §19, §20, §21, §22, §23
8. […]

Experiment [3] deals with Histamine N-methyltransferase (Homo sapiens) (UniProt P50135). Conditions: purified enzyme, MTase-Glo SAH luminescence; measured here: HNMT inhibition; at 40 µM; stronger effect = lower value.
Source text: as §1, §2, §3, §4, §5, §6, §7, §8, §9, §10, §11, §12, §13, §14, §15, §16, §17, §18, §19, §20, §21, §22, §23
8. […]

For experiment [4], the target named is Nicotinamide N-methyltransferase (Homo sapiens) (UniProt P40261). The note with it: purified enzyme, MTase-Glo SAH luminescence; measured here: NNMT inhibition; at 40 µM; stronger effect = lower value.
Source text: as §1, §2, §3, §4, §5, §6, §7, §8, §9, §10, §11, §12, §13, §14, §15, §16, §17, §18, §19, §20, §21, §22, §23
8. […]

The target of experiment [5] is Phenylethanolamine N-methyltransferase (Homo sapiens) (UniProt P11086). The note with it: purified enzyme, MTase-Glo SAH luminescence; measured here: PNMT inhibition; at 40 µM; stronger effect = lower value.
Source text: as §1, §2, §3, §4, §5, §6, §7, §8, §9, §10, §11, §12, §13, §14, §15, §16, §17, §18, §19, §20, §21, §22, §23
8. […]
On the % scale 0 is the no-effect control and ±100 the full control effect.

As for `CCOC(=O)c1c(NC(=O)N2Cc3ccccc3-n3cccc3C2CC)sc2c1CCCC2` (configuration not stated), the activity change, negative = inhibition in experiment [1] was 2.28%; in experiment [2], -1.32%; in experiment [3] it was -2.54%; in experiment [4], -5.36%; in experiment [5] it was -4.2%.
Taken in the same sequence, the figures for `CCOc1ccc(C2c3cccn3-c3ccccc3CN2C(=O)NCc2cccc(OC)c2)cc1` (configuration not stated) were 6.09%, 0.002%, 4.92%, 2.15% and 7.19%.
For `CC1=CC(=O)[C@@H](O)[C@@]2(C)C1C[C@H]1OC(=O)[C@H](O)[C@@]3(O)[C@@H](C)[C@@H](O)[C@H](O)C2[C@@]13C` (some centres not stated), the activity change, negative = inhibition was -0.804% in experiment [1]; -2.11% in experiment [2]; -5.96% in experiment [3]; -15.5% in experiment [4]; -0.795% in experiment [5].
As for `CN1CN(c2ccccc2)C2(CCN(CCCC(=O)c3ccc(F)cc3)CC2)C1=O`, the activity change, negative = inhibition was -6.57% in experiment [1]; -3.24% in experiment [2]; -8.39% in experiment [3]; -15.8% in experiment [4]; -1.25% in experiment [5].
For the compound `CNc1ccc2oc(C[C@H]3O[C@@]4(CC[C@H]3C)O[C@H](C(C)C(=O)c3ccc[nH]3)[C@H](C)C[C@H]4C)nc2c1C(=O)O` (some centres not stated), the figures for the activity change, negative = inhibition in experiment [1] and in experiment [3] were 0.112% and 6.68%, respectively.
As for `CCC1c2cccn2-c2ccccc2CN1C(=O)Nc1cccc2c1CCCC2` (configuration not stated), the activity change, negative = inhibition in experiment [1] is -1.68%; in experiment [2] it was 0%; in experiment [3], -0.697%; in experiment [4] it was 3.91%; in experiment [5] it was -2.5%.
As for `NC(CCP(=O)(O)O)C(=O)O` (configuration not stated), the activity change, negative = inhibition in experiment [1] was -5.34%; in experiment [2], 3.46%; in experiment [3] it was -1.62%; in experiment [4], -5.72%; in experiment [5] it was 4.97%.
For the compound `O=C(Nc1ccc(Br)cc1)N1Cc2ccccc2-n2cccc2C1c1ccccc1` (configuration not stated), the activity change, negative = inhibition in experiment [1] is -1.43%; in experiment [2] it was 2.5%; in experiment [3], -1.63%; in experiment [4], 1.92%; in experiment [5] it was 3.68%.
Taken in the same sequence, the figures for `CCCCCn1cc(C(=O)Oc2cccc3cccnc23)c2ccccc21` were 1.95%, -12.8%, 4.46%, -26.2% and -13.1%.
On to `CC(C)CCNC(=O)N1Cc2ccccc2-n2cccc2C1C` (configuration not stated), for which the activity change, negative = inhibition in experiment [1] was 11.9%; in experiment [2] it was 0.051%; in experiment [3], 5.29%; in experiment [4], -1.44%; in experiment [5], 8.25%.
Consider `COc1ccc(C2c3cccn3-c3ccccc3CN2C(=O)Nc2ccc(C)c(F)c2)cc1OC` (configuration not stated), for which the activity change, negative = inhibition in experiment [1] is 7.15%; in experiment [2], 0.96%; in experiment [3] it was 4%; in experiment [4], 3.99%; in experiment [5] it was 5.88%.
Consider `CCOC(=O)CNC(=O)N1Cc2ccccc2-n2cccc2C1c1cccc(Cl)c1` (configuration not stated), for which the activity change, negative = inhibition in experiment [1] is 15.2%; in experiment [2] it was 4.59%; in experiment [3], 7.72%; in experiment [4], -1.97%; in experiment [5] it was 8.13%.
In the case of `C[N+]1(C)CCc2cc3c(cc2[C@H]1[C@@H]1OC(=O)c2c1ccc1c2OCO1)OCO3`, the activity change, negative = inhibition in experiment [1] is 2.17%; in experiment [2], 13.9%; in experiment [3], 11.1%; in experiment [4], -3.68%; in experiment [5], 4.38%.
Taken in the same sequence, the figures for `CS(=O)(=O)NC[C@H]1C[C@@H]2CCN1C[C@@H]2CN1CCc2ccccc2C1` were -5.22%, -6.42%, -11.8%, -8.65% and -7.76%.
Taken in the same sequence, the figures for `COc1cc(OC)c(NC(=O)N2Cc3ccccc3-n3cccc3C2c2cccs2)cc1Cl` (configuration not stated) were 15.1%, 6.37%, 9.04%, 5.89% and 9.14%.
Taken in the same sequence, the figures for `COC[C@]12CN(C)C3C4[C@H](OC)[C@H]1C3(C(OC)C[C@H]2O)[C@H]1C[C@@]2(O)[C@H](OC(=O)c3ccccc3)[C@@H]1[C@]4(O)[C@@H](O)[C@@H]2OC` (some centres not stated) were 0.127%, -7.46%, 5.2%, -11.5% and 2.16%.
Regarding `COc1ccc2c(c1O)-c1cccc3c1[C@@H](C2)N(C)CC3`, the activity change, negative = inhibition in experiment [1] is -7.28%; in experiment [2], 12.4%; in experiment [3], 5.21%; in experiment [4], -5.38%; in experiment [5] it was 3.42%.
Regarding `C[C@H]1O[C@@H](O[C@H]2[C@@H](O)C[C@H](O[C@H]3[C@@H](O)C[C@H](O[C@H]4CC[C@@]5(C)[C@H](CC[C@@H]6[C@@H]5CC[C@]5(C)[C@@H](C7=CC(=O)OC7)CC[C@]65O)C4)O[C@@H]3C)O[C@@H]2C)C[C@H](O)[C@@H]1O`, the activity change, negative = inhibition in experiment [1] is -0.431%; in experiment [2], -7.55%; in experiment [3] it was -0.083%; in experiment [4] it was -16.2%; in experiment [5] it was -1.52%.
